Source: patent US20250368649A1, “TETRAHYDROPYRIDOPYRIMIDINE PAN-KRAS INHIBITORS” (Mirati Therapeutics, Inc., priority 2022, published 2025)

Tests used:
HCT116 cells = test: Inhibition of KRas-mediated phosphorylation of ERK (Cisbio HTRF pERK), HCT116 cells; format: cell-based; settings: Homo sapiens; for inhibition at 0.1 µM: HCT-116, single point at 100 nM, 3 hrs compound incubation; for IC50: HCT-116, 3 h, 3 hr compound incubation
H460 cells = test: Inhibition of KRas-mediated phosphorylation of ERK (Cisbio HTRF pERK), H460 cells; format: cell-based; settings: Homo sapiens; for inhibition at 0.1 µM: NCI-H460, single point at 100 nM, 3 hrs compound incubation; for IC50: NCI-H460, 3 h, 3 hr compound incubation
A549 cells = test: Inhibition of KRas-mediated phosphorylation of ERK (Cisbio HTRF pERK), A549 cells; format: cell-based; settings: Homo sapiens; for inhibition at 0.1 µM: single point at 100 nM, 3 hrs compound incubation; for IC50: A549, 3 h, 3 hr compound incubation
H727 cells = test: Inhibition of KRas-mediated phosphorylation of ERK (Cisbio HTRF pERK), H727 cells; format: cell-based; settings: Homo sapiens; for IC50: NCI-H727, 3 h, 3 hr compound incubation; for inhibition at 0.1 µM: NCI-H727, single point at 100 nM, 3 hrs compound incubation
ASPC1 cells = test: Inhibition of KRas-mediated phosphorylation of ERK (Cisbio HTRF pERK), ASPC1 cells; format: cell-based; settings: Homo sapiens, AsPC-1 cells; for IC50: ASPC1, 3 h, 3 hr compound incubation; for inhibition at 0.1 µM: ASPC1, single point at 100 nM, 3 hrs compound incubation
H358 cells = test: Inhibition of KRas-mediated phosphorylation of ERK (Cisbio HTRF pERK), H358 cells; format: cell-based; settings: Homo sapiens; for inhibition at 0.1 µM: NCI-H358, single point at 100 nM, 3 hrs compound incubation; for IC50: NCI-H358, 3 h, 3 hr compound incubation
PSN1 cells = test: Inhibition of KRas-mediated phosphorylation of ERK (Cisbio HTRF pERK), PSN1 cells; format: cell-based; settings: Homo sapiens, PSN1, 3 h
Method: (§1) Inhibition of KRas Phosphorylation of ERK (HTRF) by Exemplary Compounds of Formula (I) Cisbio HTRF Advanced pERK Assay Catalog #64AERPEH • Cells: MKN1, PSN1 • Procedure: • Day 1: Seed 6,000 cells/well -25 µl/well in 384-well white solid bottom plate; RPM1_10% FBS.

MKN1 cells = test: Inhibition of KRas-mediated phosphorylation of ERK (Cisbio HTRF pERK), MKN1 cells; format: cell-based; settings: Homo sapiens, MKN-1, 3 hour compound incubation
Method: as §1

KRas Q61H = KRas Q61H (Homo sapiens, UniProt P01116, Q61H); test: KRas binding assay (TR-FRET displacement), KRas Q61H; settings: for IC50: TR-FRET displacement
KRas G12S = KRas G12S (Homo sapiens, UniProt P01116, G12S); format: binding; settings: for IC50: TR-FRET displacement, read-out: Binding to KRas (IC50 nM) G12S
KRas G12A = KRas G12A (Homo sapiens, UniProt P01116, G12A); format: binding; settings: for IC50: TR-FRET displacement, read-out: Binding to KRas (IC50 nM) G12A
KRas WT = KRas WT (Homo sapiens, UniProt P01116); test: KRas binding assay (TR-FRET displacement), KRas WT; settings: for IC50: TR-FRET displacement
KRas G12C = KRas G12C (Homo sapiens, UniProt P01116, G12C); format: binding; settings: for IC50: TR-FRET displacement, read-out: Binding to KRas (IC50 nM) G12C
KRas G13D = KRas G13D (Homo sapiens, UniProt P01116, G13D); format: binding; settings: for IC50: TR-FRET displacement, read-out: Binding to KRas (IC50 nM) G13D
[1] = 3 hour compound incubation, Cisbio pERK HTRF

SMILES	inhibition at 0.1 µM (HCT116 cells)	inhibition at 0.1 µM (H460 cells)	inhibition at 0.1 µM (A549 cells)	IC50 (H727 cells; Cisbio pERK HTRF)	IC50 (ASPC1 cells; Cisbio pERK HTRF)	inhibition at 0.1 µM (H358 cells)	IC50 (PSN1 cells; [1])	IC50 (KRas Q61H)	IC50 (KRas G12S)	IC50 (KRas G12A)	IC50 (KRas WT)	IC50 (KRas G12C)	IC50 (KRas G13D)	other results
CCc1c(F)ccc2cc(O)cc(N3CCc4c(nc(OC[C@@]56CCCN5C[C@H](F)C6)nc4N4CCCn5nc(C(=O)N6C7CC6CN(C)C7)cc5C4)C3)c12 [Example 271, (5-(7-(8-ethyl-7-fluoro-3-hydroxynaphthalen-1-yl)-2-(((2R,7aS)-2-fluorohexahydro-1H-pyrrolizin-7a-yl)methoxy)-5,6,7,8-tetrahydropyrido[3,4-d]pyrimidin-4-yl)-5,6,7,8-tetrahydro-4H-pyrazolo[1,5-a][1,4]diazepin-2-yl)(3-methyl-3,6-diazabicyclo[3.1.1]heptan-6-yl)methanone]	19%	34%	31%	18 nM	10 nM	94%	> 10000 nM							IC50 (MKN1 cells): 42.9 nM
CCc1c(F)ccc2cc(O)cc(N3CCc4c(nc(OC[C@@]56CCCN5C[C@H](F)C6)nc4N4CCCn5nc(CN(C)C(=O)NC)cc5C4)C3)c12 [Example 309, 1-((5-(7-(8-ethyl-7-fluoro-3-hydroxynaphthalen-1-yl)-2-(((2R,7aS)-2-fluorohexahydro-1H-pyrrolizin-7a-yl)methoxy)-5,6,7,8-tetrahydropyrido[3,4-d]pyrimidin-4-yl)-5,6,7,8-tetrahydro-4H-pyrazolo[1,5-a][1,4]diazepin-2-yl)methyl)-1,3-dimethylurea]	-8%	6%	7%	773 nM	484 nM	12%								
CCSc1ccc2cc(O)cc(N3CCc4c(nc(OC[C@@]56CCCN5C[C@H](F)C6)nc4N4CCCC5(CNS(=O)(=O)N5)C4)C3)c2c1F (stereo partly drawn) [Example 510, 7-(7-(7-(ethylthio)-8-fluoro-3-hydroxynaphthalen-1-yl)-2-(((2R,7aS)-2-fluorohexahydro-1H-pyrrolizin-7a-yl)methoxy)-5,6,7,8-tetrahydropyrido[3,4-d]pyrimidin-4-yl)-2-thia-1,3,7-triazaspiro[4.5]decane 2,2-dioxide]	0%	9%	-1%	4340 nM	2800 nM	-5%		120 nM	89 nM	107 nM	107 nM	80 nM	89 nM	inhibition at 0.1 µM (H727 cells): 19%; inhibition at 0.1 µM (ASPC1 cells): 16%
O=C1NC(=O)C2(CCCN(c3nc(OC[C@@]45CCCN4C[C@H](F)C5)nc4c3CCN(c3c5ccccc5cc5[nH]ncc35)C4)C2)N1 (stereo partly drawn) [Example 472, 7-(7-(1H-benzo[f]indazol-4-yl)-2-(((2R,7aS)-2-fluorohexahydro-1H-pyrrolizin-7a-yl)methoxy)-5,6,7,8-tetrahydropyrido[3,4-d]pyrimidin-4-yl)-1,3,7-triazaspiro [4.5]decane-2,4-dione]	8%	19%	-2%	907 nM	1740 nM	25%		< 2 nM	3 nM	< 2 nM	< 2 nM	2 nM	2 nM	
CCc1c(F)ccc2cc(O)cc(N3CCc4c(nc(OC[C@@]56CCCN5C[C@H](F)C6)nc4N4CCCn5nc(C(=O)N6CC[C@@H]7CC[C@H]6C7)cc5C4)C3)c12 [Example 618, ((1S,5S)-2-azabicyclo[3.2.1]octan-2-yl)(5-(7-(8-ethyl-7-fluoro-3-hydroxynaphthalen-1-yl)-2-(((2R,7aS)-2-fluorotetrahydro-1H-pyrrolizin-7a(5H)-yl)methoxy)-5,6,7,8-tetrahydropyrido[3,4-d]pyrimidin-4-yl)-5,6,7,8-tetrahydro-4H-pyrazolo[1,5-a][1,4]diazepin-2-yl)methanone]														IC50 (HCT116 cells): 59 nM; IC50 (H460 cells): 26 nM; IC50 (A549 cells): 15 nM; IC50 (H727 cells): 4 nM; IC50 (ASPC1 cells): 5 nM; IC50 (H358 cells): 3 nM; IC50 (PSN1 cells; 3 hr compound incubation): 1390 nM
CCc1c(F)ccc2cc(O)cc(N3CCc4c(nc(OC[C@@]56CCCN5C[C@H](F)C6)nc4N4CCCn5nc(CNS(C)(=O)=O)cc5C4)C3)c12 [Example 305, N-((5-(7-(8-ethyl-7-fluoro-3-hydroxynaphthalen-1-yl)-2-(((2R,7aS)-2-fluorohexahydro-1H-pyrrolizin-7a-yl)methoxy)-5,6,7,8-tetrahydropyrido[3,4-d]pyrimidin-4-yl)-5,6,7,8-tetrahydro-4H-pyrazolo[1,5-a][1,4]diazepin-2-yl)methyl)methanesulfonamide]	18%	6%	4%		441 nM	9%								
CCc1c(F)ccc2cc(O)cc(N3CCc4c(nc(OC[C@@]56CCCN5C[C@H](F)C6)nc4N4CCCn5nc(C(=O)NC)cc5C4)C3)c12 [Example 400, 5-(7-(8-ethyl-7-fluoro-3-hydroxynaphthalen-1-yl)-2-(((2R,7aS)-2-fluorohexahydro-1H-pyrrolizin-7a-yl)methoxy)-5,6,7,8-tetrahydropyrido[3,4-d]pyrimidin-4-yl)-N-methyl-5,6,7,8-tetrahydro-4H-pyrazolo[1,5-a][1,4]diazepine-2-carboxamide]				5 nM	2 nM		3790 nM							IC50 (HCT116 cells; Cisbio pERK HTRF): 94 nM; inhibition at 0.01 µM (KRas Q61H; single point, 10 nM compound): 96%; IC50 (H460 cells; Cisbio pERK HTRF): 32 nM; IC50 (A549 cells; Cisbio pERK HTRF): 8 nM; inhibition at 0.01 µM (KRas G12S; single point, 10 nM compound, read-out: Binding to KRas (% inhibition at 10 nM) G12S): 99%; inhibition at 0.01 µM (KRas G12A; single point, 10 nM compound, read-out: Binding to KRas (% inhibition at 10 nM) G12A): 96%; inhibition at 0.01 µM (KRas WT; single point, 10 nM compound): 96%; inhibition at 0.01 µM (KRas G12C; single point, 10 nM compound, read-out: Binding to KRas (% inhibition at 10 nM) G12C): 99%; IC50 (MKN1 cells): 13.5 nM; inhibition at 0.01 µM (KRas G13D; single point, 10 nM compound, read-out: Binding to KRas (% inhibition at 10 nM) G13D): 95%
CCc1c(F)ccc2cc(O)cc(N3CCc4c(nc(OC[C@@]56CCCN5C[C@H](F)C6)nc4N4CCCn5nc(C(=O)N6CCN(C7COC7)CC6)cc5C4)C3)c12 [Example 504, (5-(7-(8-ethyl-7-fluoro-3-hydroxynaphthalen-1-yl)-2-(((2R,7aS)-2-fluorotetrahydro-1H-pyrrolizin-7a(5H)-yl)methoxy)-5,6,7,8-tetrahydropyrido[3,4-d]pyrimidin-4-yl)-5,6,7,8-tetrahydro-4H-pyrazolo[1,5-a][1,4]diazepin-2-yl)(4-(oxetan-3-yl)piperazin-1-yl)methanone]	61%	89%		8 nM	3 nM		3130 nM							IC50 (HCT116 cells; Cisbio pERK HTRF): 45 nM; IC50 (H460 cells; Cisbio pERK HTRF): 18 nM; IC50 (A549 cells; Cisbio pERK HTRF): 19 nM; inhibition at 0.1 µM (H727 cells): 84%; inhibition at 0.1 µM (ASPC1 cells): 100%; IC50 (H358 cells; Cisbio pERK HTRF): 2 nM
CCc1cccc2cccc(N3CCc4c(nc(OCC5(CN(C)C)CC5)nc4NCc4nc(C5(O)CCOCC5)n[nH]4)C3)c12 [Example 525, 4-(5-(((2-((1-((dimethylamino)methyl)cyclopropyl)methoxy)-7-(8-ethylnaphthalen-1-yl)-5,6,7,8-tetrahydropyrido[3,4-d]pyrimidin-4-yl)amino)methyl)-1H-1,2,4-triazol-3-yl)tetrahydro-2H-pyran-4-ol]								27100 nM	26900 nM	25100 nM	20200 nM	15000 nM	31600 nM	
